The supplement of paper PMC11417369
± gives the standard deviation of the averaged measurements. This is one part of the list.

test system: PfAP2-EXP AP2 domain (GST-tagged); assay: gcPBM binding intensity (ln(normalized median fluorescence intensity)); higher = stronger DNA binding
Procedure, shortened: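 An Agilent 4 × 180k array carrying primer-extended double-stranded 36-bp intergenic genomic probes and negative controls received GST-tagged P. falciparum DNA-binding domains expressed in E. coli, about 25 μg on average, for 1 h. The binding buffer contained 1× PBS, 1% milk, 0.2 mg/ml BSA, 0.5% salmon testes DNA and 0.03% Triton X-100. Binding intensity is the top Masliner-normalised natural-log median intensity across replicate spots of either probe orientation, read after Alexa488 anti-GST antibody staining and a 488 nm scan.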

Point of comparison: “GAAATATTTAGACACACACACAAACATATAAATATA [CACACA_site6980]”, “gcPBM binding intensity (ln)” value 8.76 ± 0.57. Against it:
- CAGATATTTGTTCATATACACACTTTTGATAAAATA [CACACA_site1219] — within error, 8.41 ± 0.44
- AATATTTTTTGTTTTACACACATATATAGATATATA [CACACA_site7662] — within error, 8.56 ± 0.38
- TCATATATAAAAAGGGTGCTTTTAAAAGAATGGATT — within error, 9.12 ± 0.32
- CAAAAAATGAAACACACACACACACCCATAAATAAA [CACACA_site1231] — within error, 8.7 ± 0.54
- TTTTTTTTTGTATTTTCACACATTTTTTTTTTTTTT [CACACA_site5407] — within error, 8.47 ± 0.53
- TTATTTAAACAAATCACACACAAATATATATACATA [CACACA_site2019] — within error, 8.46 ± 0.62
- TTTTTTGGGTAAAATTATAAAATATGTATATATAAA [CACACA_negctrl_site27] — within error, 8.15 ± 0.41
- CATATTTTCAAAATTAGTACATAAAAAAAAAAATAT [XGTACX_site3101] — within error, 8.62 ± 0.49
- TATAATCATATATACACACACATATATATATATATA [CACACA_site2168] — higher, 10.2 ± 0.43
- TCTTCCGCTTTATGGAGTACTATGGTAGCCTTTCCT [XGTACX_site2958] — within error, 8.64 ± 0.42
- GACCTACAAAAAGGCACACATATACGCATACATACA [CACACA_site2179] — within error, 8.59 ± 0.4
- AAAAAAAAAAGACACACACACACACGGAGATATATA [CACACA_site6216] — within error, 8.85 ± 0.52
- TTTAATACTTTTTTCTGTACACACTTGATTTACTAT [XGTACX_site5925] — within error, 8.85 ± 0.38
- AATTTTAATTATATCACACATAATATATACCAAAAA [CACACA_site6011] — within error, 8.51 ± 0.38
- TACATATTTTTATATACACACAATAATTACTATAAA [CACACA_site6879] — within error, 8.29 ± 0.42
- TAGGTACATAAATTGGTGCAAAGTGTACATATATAT — within error, 9.255 ± 0.064
- AAAATACATAAACGTTCACACATTGAAGATCACAAG [CACACA_site5347] — within error, 8.61 ± 0.45
- AACATATACACGAACACACACACATATAAATAAATA [CACACA_site6380] — within error, 8.74 ± 0.56
- AAAAATACAATTTTCTTGCACTTTGTTGCATTGTAA — within error, 8.54 ± 0.16
- CAAAATATAAAAACATGTACATAAATATTAACGAAT [XGTACX_site2380] — within error, 9.08 ± 0.38
- TCATCCACATATTGTAGTACAAGATAATTGTTTATT [XGTACX_site1634] — the same, 8.76 ± 0.13
- ATATGTTTATTAAATGCATGTCAAGACTTAAGATAT [TGCATGCA_site329] — within error, 8.66 ± 0.47
- TTTATTTATAGACACACACACAAAAAAAAAAAAAAA [CACACA_site7280] — within error, 8.24 ± 0.58
- TTGTATATATATGGAAAAATATATATATATATATAT [GTGCAC_negctrl_site591] — higher, 10.3 ± 0.29
- TTTTTTTTTTTTTTTATAAAAGATAATTTTTTTTTA [CACACA_negctrl_site133] — within error, 8.07 ± 0.45
- CATTTATATTATAAATGTACAAAGTTCGTTTGTTCC [XGTACX_site1305] — within error, 8.49 ± 0.45
- TATAAATTTAAAATGACACACACTAATATTATTTAA [CACACA_site8334] — within error, 8.53 ± 0.44
- TGTCTTTAAATTTCTCAACACACAGTTATAAAAAAT [CACACA_site8930] — within error, 8.44 ± 0.4
- GGGTCAAGTAAGCTGTTCCTCTTTTTCTTTCTCACT [GTGCAC_negctrl_site473] — within error, 9.01 ± 0.52
- ATACGATTGAAACATTGTACATGAATATAAAAAAAT [XGTACX_site5704] — within error, 8.88 ± 0.47
- TTTTTATTATTCTTAAGGATATAACAAAAAAGAAAA [XGTACX_negctrl_site584] — within error, 8.29 ± 0.38
- ATTAATATTATTAGAAGTACTAATAGTAGTATAACT [XGTACX_site1325] — within error, 8.46 ± 0.35
- TAAACGTTAGTATGTGTGCACATTAGTAATTTAAAA — within error, 8.78 ± 0.071
- TTCTAAAAAAATAAAATTATCAAGGTTTTTAAACGT [CACACA_negctrl_site308] — within error, 8.5 ± 0.35
- TCAAAGCACACATACACACACATATAGATTTATATA [CACACA_site6272] — within error, 8.54 ± 0.51
- TAAATAAATATATATTCACACACAAACATATATATA [CACACA_site9332] — within error, 8.38 ± 0.3
- TCTTCATAAAAATAAAGTACATTATATATATAAATA [XGTACX_site3775] — within error, 8.38 ± 0.42
- GATTATATTATATATTAAATATAAATATGTATTATA [TGCATGCA_negctrl_site66] — within error, 8.04 ± 0.42
- ATGTTGTGTATATATACACACATACATATATATATA [CACACA_site8461] — higher, 9.97 ± 0.25
- AATGAGAAGGACTGCACACTAAAATGGAAGGAGAAA [CACACA_site1575] — within error, 8.99 ± 0.44
- AAAAAAAATTAAAATAAATTAAAAAGTAATTATATA [GTGCAC_negctrl_site615] — within error, 8.1 ± 0.44
- AATGGAAATGTAAAATGTACAGGACGCACACACATA [XGTACX_site7788] — within error, 8.62 ± 0.4
- GAAAAAATTTTATGGTGTACTTTATTTATTTATATA [XGTACX_site6323] — within error, 8.6 ± 0.35
- TTATTACATGTTACTTAACACACATCTGGTGAAATA [CACACA_site7939] — within error, 8.63 ± 0.38
- AAAATATAGTAATATATATATGTATATTATTTGTGG [CACACA_negctrl_site1590] — within error, 8.67 ± 0.55
- GGAAAGACAGTTCACAGTACCCAGTAAACTCTACGG [XGTACX_site2557] — within error, 8.36 ± 0.42
- TTTATATATGTAAATGCACACATATGTGTATATACT [CACACA_site8493] — within error, 8.72 ± 0.25
- TACCATGTTCAAATTACACACATATAATGTAATATA [CACACA_site5150] — within error, 8.37 ± 0.32
- ATTAAGTTCAAATGTAGTACGTGTAAAAAAAAAAAA [XGTACX_site1578] — within error, 8.73 ± 0.4
- ATATATAATATTTTTATTTTTATTTTTTTTTTATGA [TGCATGCA_negctrl_site577] — within error, 8.02 ± 0.32
- TATAGGTATATATTATGTACTTATAATTATATAGAT [XGTACX_site1912] — within error, 8.52 ± 0.35
- AAAATAAATAAATAAATAAATATATATATATATATA [XGTACX_negctrl_site345] — higher, 10.1 ± 0.42
- TAATCTTTCGTACATGTACACACAGAAAAAAAAAAA [CACACA_site8798] — within error, 8.62 ± 0.34
- TGCATGCATTATCATAGTACATATAATGTTGTATAA [XGTACX_site2775] — higher, 10.1 ± 0.18
- TATTAAGTATTTTACGTACACACTTATAAATGTACA [CACACA_site3885] — within error, 8.46 ± 0.35
- ATTATTAAGTTTCACAAGAACATTGTTAACAATTTT [CACACA_negctrl_site1128] — within error, 8.46 ± 0.38
- TATAAGGTGTCCTATACACACTCCAATAGATATATA [CACACA_site7066] — within error, 8.37 ± 0.39
- AATTTATATTTTCGTAGTACGTATTTTATTCTTTTG [XGTACX_site4162] — within error, 8.78 ± 0.39
- ATTACATGCAATATATGTACGTAATATATATATATA [XGTACX_site2300] — higher, 9.91 ± 0.38
- CTGAACCCGTTATGGTGTACATAAAATAAGACACAG [XGTACX_site3484] — within error, 8.67 ± 0.26
- AAAGACGCAAAATTGGTGCGCTGCTTTTAGCATTTT — within error, 8.61 ± 0.25
- AAAAAAAAAAAGTACACACATACATATAAATATATA [CACACA_site1809] — within error, 8.43 ± 0.47
- ATTTATATCCTTAAACGTACATTGTATTGTATTTTA [XGTACX_site6080] — within error, 8.71 ± 0.35
- ACAGAATATTTAATTCAACACACATACATATTTATT [CACACA_site8734] — within error, 8.22 ± 0.39
- AATAATCATGATCAAAGTACTTATGAATACCAAAAA [XGTACX_site2572] — within error, 8.8 ± 0.37
- GCATCCCTTTTTATGTGTACATACAAAGGCAATTAC [XGTACX_site6977] — within error, 8.86 ± 0.33
- TATTGTTTTAAAGAGACATGCAATATATATTATTCC [TGCATGCA_site752] — the same, 8.76 ± 0.38
- AAAATATAAATCTAAGCATGCAAAAAAAATTTATAA [TGCATGCA_site1008] — higher, 9.58 ± 0.2
- AATAATAATAGTAATATGTACATATATATATATATA [TGCATGCA_negctrl_site542] — higher, 10.1 ± 0.33
- TATAAGCAAAAACACACACACATATATATATATATA [CACACA_site3804] — higher, 10.3 ± 0.28
- TTTTTATTCGATGATCAAATAGGTATATACAAAAAA [CACACA_negctrl_site1813] — within error, 8.78 ± 0.45
- TTATTTAAAAAAAAGTGTACCCATATATTATAAATC [XGTACX_site8374] — within error, 8.39 ± 0.35
- TAATATTATAGATAAACACACATACACATGTAAATA [CACACA_site7049] — within error, 8.82 ± 0.46
- AAATGAAATTTGTATACACACAAATATATATATATA [CACACA_site836] — higher, 10.1 ± 0.28
- TACTTATGTGCATACCTACACACTTACATATATATA [CACACA_site2975] — within error, 8.9 ± 0.4
- GATGATGTTTATTTGTGTACATATTAATACTTAATA [XGTACX_site1902] — within error, 8.8 ± 0.24
- AATTATTTACCCTATACACACAAAACCCACTAAAAA [CACACA_site4801] — within error, 9.02 ± 0.73
- AAAAAAAGAATGTGAACACACACATTGAATATAATT [CACACA_site8341] — within error, 8.46 ± 0.52
- AAGAACAGAACGTACACACACATATATATATATATA [CACACA_site3457] — higher, 10.2 ± 0.23
- AATCATATGAAAAATACATGCGCATGGATACCTTTA [TGCATGCA_site224] — within error, 8.82 ± 0.52
- TATAAATAAATACATACACACACATACATATATATA [CACACA_site9024] — within error, 8.71 ± 0.38
- ATAAAATCAAAATATACACACAAGGGGGAAAATCAA [CACACA_site2809] — within error, 8.96 ± 0.42
- ATAGGACATGTATCCAGTACATATTTAAAAAAAATA [XGTACX_site88] — within error, 8.43 ± 0.33
- GCATATATCAAATATCGTACATTTTTTAAATTAAAA [XGTACX_site3994] — within error, 8.42 ± 0.47
- TTTGTAAGTCTTTGTTGTACTCAATAGAATGAAGAA [XGTACX_site8930] — within error, 8.77 ± 0.42
- TTTTCTTTTTTTTATTGTACTTATAAAAATAAATAA [XGTACX_site3498] — within error, 8.44 ± 0.33
- TAAAAAAAATAGCATACACACATATATACATATATA [CACACA_site658] — within error, 8.27 ± 0.35
- GTCGCCAAAAGGTGTACACATAATGCATTATCATAA [CACACA_site6112] — within error, 9.05 ± 0.42
